We go through 49 molecules from PubChem BioAssay AID1159614 (National Center for Advancing Translational Sciences (NCATS), 2016).

Molecules are shown by their SMILES. In all, about 45,000 compounds went through this assay and about 65 (0.1%) were called active. The call rests on the fitted dose curve; in most records, active means well fitted activation curve with a large enough effect; inconclusive means small, poorly fitted or top-dose-only effect; inactive means no such curve, though single readings can be large or run the other way. The list shows a part of the results.

This experiment addresses Galactocerebrosidase (Homo sapiens) (UniProt P54803). The experiment can be described thus: A Novel Cell-Based Assay to Identify Small Molecules for B -Galactocerebrosidase. Further: 0% is about no effect; nearly all actives have a fitted effect of over 65% in size. As to conditions: 145M-Twi-hGALC-G270D cells (Twitcher mouse brain line with human GALC G270D), HMU-beta-Gal fluorescence, 48 h; series mostly up to 57.5 µM; activation: at the top concentration. Put shortly: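 Brain-derived Twitcher mouse 145M-Twi cells stably expressing human GALC-G270D or wild-type GALC, treated live, then residual GALC activity read by fluorescence of HMU-b-Gal substrate (0.1 mM final) in citrate-phosphate buffer pH 5.2 with sodium taurocholate. Signal increase indicates enhancement.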
Chain of UniProt P54803 (P54803 whole entry, looked up): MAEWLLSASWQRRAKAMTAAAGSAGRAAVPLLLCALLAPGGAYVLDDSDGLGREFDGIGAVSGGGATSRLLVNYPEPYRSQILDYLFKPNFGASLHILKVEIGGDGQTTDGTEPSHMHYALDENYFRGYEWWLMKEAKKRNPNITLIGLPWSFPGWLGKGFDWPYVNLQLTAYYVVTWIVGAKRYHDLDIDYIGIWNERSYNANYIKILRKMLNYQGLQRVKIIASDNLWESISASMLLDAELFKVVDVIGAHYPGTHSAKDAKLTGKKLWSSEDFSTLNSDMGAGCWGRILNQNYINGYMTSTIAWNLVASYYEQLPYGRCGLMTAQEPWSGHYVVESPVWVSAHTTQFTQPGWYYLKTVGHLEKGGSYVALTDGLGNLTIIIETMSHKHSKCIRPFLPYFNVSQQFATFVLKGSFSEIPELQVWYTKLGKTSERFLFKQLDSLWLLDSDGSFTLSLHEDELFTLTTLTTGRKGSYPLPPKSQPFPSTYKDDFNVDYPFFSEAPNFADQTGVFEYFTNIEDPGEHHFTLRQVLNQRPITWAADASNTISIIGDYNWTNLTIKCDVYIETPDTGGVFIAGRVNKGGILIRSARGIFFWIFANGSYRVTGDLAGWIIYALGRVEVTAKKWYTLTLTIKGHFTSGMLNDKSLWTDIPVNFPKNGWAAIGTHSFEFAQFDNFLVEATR
Regarding `O=C(CN1C(=O)CCn2nc(-c3ccccc3)cc21)NCc1ccccc1`, the “activation” value was inactive: -12.9%.

Consider `COc1cccc(CNC(=O)C(=O)NCC(c2ccco2)S(=O)(=O)c2ccccc2)c1` (centres undefined), for which the “activation” value was inactive: -24.7%.

`O=C(Nc1onc2c1CCCC2)c1ccccc1`: the “activation” value is inactive: 11%.

As to `CCC(Sc1nnc2c3ccccc3n(CC)c2n1)C(=O)Nc1ccc(NC(C)=O)cc1` (centres undefined), the “activation” value was inactive: -19%.

For `Cc1ccccc1-c1nc(CS(=O)(=O)CC(=O)NCCCc2ccccc2)c(C)o1`, the “activation” value was inactive: -2.18%.

Take `COc1ccc(-n2nc(C(=O)NCCc3ccc(OC)c(OC)c3)c3c4ccccc4n(C)c3c2=O)cc1`: the “activation” value is inactive: -18.5%.

For the molecule `CCCOc1cccc(C2c3c(oc4ccc(F)cc4c3=O)C(=O)N2CCc2ccc(OC)cc2)c1` (centres undefined), the “activation” value was inactive: -12.9%.

With `COc1cccc(C2C(C(=O)Nc3ccccc3OC)=C(C)Nc3nc(-c4ccco4)nn32)c1` (centres undefined), the “activation” value is inactive: -11.7%.

As for `O=C(Cn1cnc2onc(-c3ccc(F)cc3)c2c1=O)N1CCN(c2ccc(F)cc2)CC1`, the “activation” value is inactive: -19.4%.

Take `COc1cccc(CNC(=O)c2sc3ncccc3c2-n2c(C)ccc2C)c1OC`: the “activation” value was inactive: -9.6%.

On to `O=C(Cn1nc(Cc2cccnc2)c2ccccc2c1=O)Nc1ccc(F)c(Cl)c1`, for which the “activation” value is inactive: -2.86%.

Regarding `COc1ccc(-c2noc(CSc3nc4ccc(C)cc4[nH]3)n2)cc1`, the “activation” value is inactive: -41.3%.

`CCC(C(=O)Nc1cc(C(F)(F)F)ccc1Cl)n1nc(C)c2sc3ccccc3c2c1=O` (centres undefined): the “activation” value is inactive: -1.87%.

On to `COc1ccccc1CNC(=O)Cn1nc(C)n2cccc2c1=O`, for which the “activation” value was inactive: 7.15%.

Turning to `COc1ccc(C(=O)NCC(c2ccc(Cl)cc2)N2CCCCC2)cc1` (centres undefined), the “activation” value was inactive: -10.7%.

In the case of `O=C(Nc1ccc(F)cc1F)C1CCN(S(=O)(=O)c2ccc3[nH]c(=O)ccc3c2)CC1`, the “activation” value is inactive: -13.7%.

Turning to `CCc1ccc(NC(=O)Cn2nnc(C(=O)NCc3ccc(C)cc3)c2N)cc1`, the “activation” value was inactive: -0.0453%.

Turning to `CNCCC(Oc1ccc(C(F)(F)F)cc1)c1ccccc1` (centres undefined), the “activation” value is inactive: -11%.

For `Cc1nc2n(c(=O)c1CCN1CCC(c3noc4cc(F)ccc34)CC1)CCCC2`, the “activation” value is inactive: -15.1%.

With `CCc1ccccc1N(C)C(=O)c1cn(-c2cccc(OC)c2)c(=O)c2ccccc12`, the “activation” value is inactive: -12.2%.

For `CC(=O)c1ccc(N2C(=O)N(Cc3ccccc3C#N)c3ccccc3S2(=O)=O)cc1`, the “activation” value is inactive: 7.95%.

Turning to `CN(C)c1ccc(C2C=C(c3ccccc3)Nc3nnnn32)cc1` (centres undefined), the “activation” value is inactive: -11.6%.

With `CCOc1ccc(C(=O)NCC(c2ccc3c(c2)OCO3)N2CCOCC2)cc1` (centres undefined), the “activation” value is inactive: -11.8%.

`CC1(C(=O)NC2CCCCC2)Cc2ccccc2C(=O)N1Cc1ccccc1Cl` (centres undefined): the “activation” value was inactive: -11.6%.

As to `COc1cc(NC(=O)CCc2nc3cccnc3n2Cc2cccs2)cc(OC)c1OC`, the “activation” value was inactive: -21.2%.

In the case of `CCc1ccc(OCc2nc(-c3ccc(OC)c(OC)c3)no2)c(Br)c1`, the “activation” value is inactive: -8.58%.

As to `O=C(CCc1nc2cccnc2n1-c1ccccc1)Nc1ccc(Cl)c(Cl)c1`, the “activation” value was inactive: -8.99%.

As for `COc1cc(-c2noc(-c3ccc(NCc4ccco4)c([N+](=O)[O-])c3)n2)cc(OC)c1OC`, the “activation” value was inactive: -8.55%.

`Cc1ccc(-n2ncc(C(=O)Nc3ccc4c(c3)OCO4)c2C2CCN(C(=O)OC(C)(C)C)CC2)c(C)c1`: the “activation” value is inactive: 10.5%.

With `Cc1c(C(=O)Nc2ccc(F)c(Cl)c2)oc2ccc(S(=O)(=O)N(C)C3CCCCC3)cc12`, the “activation” value is inactive: -10.7%.

Take `Cc1nn(C)c2c1c(C(F)(F)F)cc(=O)n2CC(=O)N1CCCCC1C` (centres undefined): the “activation” value is inactive: -9.1%.

In the case of `CCCCN(CC)C(=O)c1cc2c(=O)n3ccccc3nc2n1C`, the “activation” value is inactive: -9.33%.

For the molecule `CCOC(=O)c1nc(Nc2ccccc2OC)c2ccccc2n1`, the “activation” value is inactive: -11.6%.

Regarding `Cc1cn2c(=O)cc(COc3ccc(NC(=O)c4ccccc4C)cc3)nc2s1`, the “activation” value was inactive: 8.43%.

For the molecule `O=C(Cn1cnc2c(oc3ccccc32)c1=O)Nc1ccc(OC(F)(F)F)cc1`, the “activation” value is inactive: -17%.

Regarding `O=C(CN1C(=O)CC(c2ccco2)Sc2ccccc21)Nc1ccc(C(F)(F)F)cc1` (centres undefined), the “activation” value is inactive: -12.9%.

In the case of `CC(=O)Nc1ccc(CC(=O)O)cc1`, the “activation” value was inactive: -16%.

As for `O=C(Nc1cccc(Cl)c1)N1CCC(CN2CCOCC2)CC1`, the “activation” value is inactive: -16.5%.

As to `COc1cc2[nH]c(=O)n(Cc3ccc(C(=O)N4CCN(c5cc(Cl)ccc5C)CC4)cc3)c(=O)c2cc1OC`, the “activation” value was inactive: -26.6%.

In the case of `COc1ccc(N(Cc2cccs2)C(=O)c2ccc(C(C)(C)C)cc2)cc1`, the “activation” value was inactive: 17.7%.

In the case of `O=C(NCC(c1ccc2c(c1)OCO2)N1CCOCC1)C(=O)Nc1ccc(F)cc1F` (centres undefined), the “activation” value is inactive: -2.04%.

With `Cc1cc(C)c(NC(=O)Cn2ccn(-c3cccc(Cl)c3)c(=O)c2=O)c(C)c1`, the “activation” value was inactive: -11.5%.

As to `O=C(CCC1N=C2c3ccccc3N=C(SCc3ccccc3F)N2C1=O)NCCc1ccccc1` (centres undefined), the “activation” value was inactive: -12.1%.

`COc1ccc(N(C(=O)c2cccc(C)c2)S(=O)(=O)c2ccc(C)cc2)cc1`: the “activation” value is inactive: -19.5%.

Take `O=C(Nc1nnc(S(=O)(=O)N2CCCc3ccccc32)s1)c1cccc(F)c1`: the “activation” value is inactive: -10.6%.

In the case of `COC(=O)C1CCN(CC(=O)Nc2cc(C)c3c(=O)oc4ccccc4c3n2)CC1`, the “activation” value is inactive: -7.96%.

With `CCn1c(SCc2ccc(F)cc2Cl)nnc1-c1nonc1NC(C)=O`, the “activation” value was inactive: 1.08%.

With `Cc1ccc2c(c1)N(C(=O)C1CCN(S(=O)(=O)c3c(C)noc3/C=C/c3ccccc3F)CC1)CCO2`, the “activation” value was inactive: 5.73%.

Take `CCOC(=O)c1ccc(NC(=O)c2c(C)nn(-c3ccc(F)cc3)c2-n2cccc2)cc1`: the “activation” value was inactive: -5.75%.
